# Reference: the supplement of paper PMC5655136
# Values come from read counts of a selection and are noisy.
# Tested on: NB7
# Assay: fold depletion of shRNA, plasmid library share / infected cells without Dox share (9 days) (ratio); higher = more depleted after infection (more toxic, leaky expression from a Tet-inducible vector; NB7 is a neuroblastoma line without caspase-8)
# Conditions: shRNA pool: CD95L ORF + CD95L 3'UTR + Venus libraries
# 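Also: shRNA barcodes quantified by deep sequencing of PCR amplicons from cellular DNA, counts expressed as percent of each subpool, ratio averaged over two biological duplicates.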
row,Sequence,fold depletion of shRNA
1,GATACATGGTTGTGACCTGAG,1.77
2,GATATTGTGAAGTACATATTA,0.49
3,GATCAATGAAACTGGGCTGTA,2.31
4,GATCACATGGTCCTGCTGGAG,2.13
5,GATCATTTATATGTCAACGTA,0.681
6,GATCCGCCACAACATCGAGGA,0.579
7,GATCTACTGGGTGGACAGCAG,0.998
8,GATCTGCACCACCGGCAAGCT,1.21
9,GATCTGGTGATGATGGAGGGG,0.803
10,GATGAGCTACTGCACTACTGG,1.47
11,GATGATGAGCTACTGCACTAC,1.69
12,GATGCACACAGCATCATCTTT,1.01
13,GATGCCACCTACGGCAAGCTG,1.91
14,GATGGAAAAGGAAGACTAGAG,3.21
15,GATGTGCATTTTTGTGAAATG,0.651
16,GATGTTTCAGCTCTTCCACCT,1.19
17,GATGTTTTCCTATAATATAAT,0.825
18,GATGTTTTGGGGACTCATTTC,6.91
19,GATGTTTTTCATGGTTCTGGT,2.96
20,GATTCTTTCCATTATGATTCT,1.42
21,GATTCTTTGTTACAGGCACCG,3.86
22,GATTGAAAAGGACACCTTTTA,0.815
23,GATTGGGCCTGGGGATGTTTC,2.73
24,GATTGTCAGCTACTAATGATG,2.57
25,GATTTAAGGGATGGAAAAGGA,0.93
26,GATTTTGAATGCTTCCTGACA,2.13

row,Sequence,fold depletion of shRNA
1,GCAAAGACCCCAACGAGAAGC,1.45
2,GCAAATAGGCCACCCCAGTCC,11.7
3,GCAACATCCTGGGGCACAAGC,1.6
4,GCAACTACAAGACCCGCGCCG,0.562
5,GCAAGAGAGATGTTTTGGGGA,2.09
6,GCAAGCTGACCCTGAAGCTGA,0.782
7,GCAAGGGCGAGGAGCTGTTCA,0.708
8,GCAATTGTAGGGGTGTGTGTG,2.52
9,GCACACAGCATCATCTTTGGA,6.03
10,GCACAGTTCTTCCCTGTCCAA,6.62
11,GCACCACCGGCAAGCTGCCCG,0.692
12,GCACCATCTTCTTCAAGGACG,3.74
13,GCACCGAGAATGTTGTATTCA,0.911
14,GCACGACTTCTTCAAGTCCGC,0.808
15,GCACTACTGGGCAGATGTGGG,0.872
16,GCAGAACACCCCCATCGGCGA,1.29
17,GCAGAACTCCGAGAGTCTACC,1.01
18,GCAGAAGAACGGCATCAAGGC,0.324
19,GCAGATGTGGGCCCGCAGCAG,0.689
20,GCAGATTGAAAAGGACACCTT,1.52
21,GCAGCACGACTTCTTCAAGTC,0.775
22,GCAGCAGCTACCTGGGGGCAG,2.72
23,GCAGCATCTTCACTTCTAAAT,3.36
24,GCAGCCCTTCAATTACCCATA,1.44
25,GCAGCTCGCCGACCACTACCA,0.15
26,GCAGTGCCAGCTCTCCCTGGG,12

row,Sequence,fold depletion of shRNA
1,GCAGTGCTTCGCCCGCTACCC,0.442
2,GCATAATAAGCTAAAGAGGCT,3.48
3,GCATATCCTGAGCCATCGGTG,1.69
4,GCATCGACTTCAAGGAGGACG,0.633
5,GCATCGAGCTGAAGGGCATCG,1.91
6,GCATGAAAAAGCAGCTACCAG,1.18
7,GCATGGACGAGCTGTACAAGT,0.608
8,GCATGTGTATTTCCAGTGCAA,23.2
9,GCATTTGAGGTCAAGTAAGAA,1.27
10,GCATTTGGTCAAGATTTTGAA,1.83
11,GCATTTTTGTGAAATGAAAAC,0.602
12,GCCAACTTCAAGATCCGCCAC,1.33
13,GCCAATGCCCCACTGGCAGCA,0.951
14,GCCACAACATCGAGGACGGCG,1.09
15,GCCACAACGTCTATATCACCG,4.92
16,GCCACAAGGTCTACATGAGGA,1.2
17,GCCACAAGTTCAGCGTGTCCG,0.878
18,GCCACCTACGGCAAGCTGACC,1.29
19,GCCAGACAAATGGAGGAATAT,1.51
20,GCCAGCTCTCCCTGGGCCCCT,21.1
21,GCCATCGGTGAAACTAACAGA,1.3
22,GCCATGCCCGAAGGCTACGTC,1.15
23,GCCATGTGAAGAGGGAGAAGC,0.551
24,GCCCACCCTCGTGACCACCCT,0.486
25,GCCCAGAAGGCCTGGTCAAAG,2.55
26,GCCCATCCTGGTCGAGCTGGA,1.35

# Same assay, conditions: shRNA pool: CD95 ORF + CD95 3'UTR + Venus libraries
row,Sequence,fold depletion of shRNA
1,GATACCTGGAACCACCTAAAG,4.14
2,GATACTAACTGCTCTCAGAGA,1.01
3,GATAGTTATAAACTGAAGCAG,0.953
4,GATCAAGAATGACAATGTCCA,1.68
5,GATCACATGGTCCTGCTGGAG,3.33
6,GATCACTCTCGGCATGGACGA,2.06
7,GATCATATTTATGTAAAGTAT,0.88
8,GATCCGCCACAACATCGAGGA,1.42
9,GATCTAACTTGGGGTGGCTTT,3.2
10,GATCTCAAAAAAGCCAATCTT,1.2
11,GATCTGCACCACCGGCAAGCT,0.667
12,GATGAAAGATTAAGATTATGC,1.39
13,GATGAACCAGACTGCGTGCCC,2.44
14,GATGAAGGACATGGCTTAGAA,1.16
15,GATGAGATCAAGAATGACAAT,1.38
16,GATGCCACCTACGGCAAGCTG,3.26
17,GATGGCCAATTCTGCCATAAG,0.555
18,GATGTAAACCAAACTTTTTTT,0.751
19,GATGTAGATTGTGTGATGAAG,1.49
20,GATGTTGACTTGAGTAAATAT,0.952
21,GATGTTTAAAATCTAGTTGGG,1.98
22,GATTAAAGATCTCAAAAAAGC,1.1
23,GATTATCGTCCAAAAGTGTTA,1.6
24,GATTATGCTCTGGCATCTAAC,0.738

row,Sequence,fold depletion of shRNA
1,GATTCTCCTTACTACTATCCT,1.13
2,GATTCTGTAGTATGAATGTAA,1.3
3,GATTCTTAATAGCTGGCTGTA,1.45
4,GATTCTTATTTTTCCCCCACC,1.61
5,GATTGGAATTGAGGAAGACTG,0.973
6,GATTTAAGATTCTCCTTACTA,0.939
7,GATTTAGGAATTGCTCTTGTC,1.88
8,GATTTTACCATATTTCTAAAC,0.93
9,GATTTTTAATATCTCATGATT,0.743
10,GATTTTTTTGCCCCTTGTGTT,8.64
11,GCAAAGACCCCAACGAGAAGC,1.79
12,GCAACATCCTGGGGCACAAGC,1.71
13,GCAACTACAAGACCCGCGCCG,0.88
14,GCAAGACTGCCCTTAGAAATT,5.32
15,GCAAGCTGACCCTGAAGCTGA,1.31
16,GCAAGCTGCCCGTGCCCTGGC,1.71
17,GCAAGGGCGAGGAGCTGTTCA,1.19
18,GCAATAAATTTATCTGATGTT,0.741
19,GCAATCAAAGATGATAAAATA,0.931
20,GCAATGGTAAAATCATCATCT,3.28
21,GCAATTAGTGTTTGAAAAGAT,1.37
22,GCACACTCACCAGCAACACCA,1.35
23,GCACAGAAAGGAAAACCAAGG,0.374
24,GCACAGTCAATGGGGATGAAC,2

row,Sequence,fold depletion of shRNA
1,GCACAGTTTATTGGTGTCATA,1.83
2,GCACCAAATGTGAACATGGAA,3.03
3,GCACCACCGGCAAGCTGCCCG,0.549
4,GCACCATCTTCTTCAAGGACG,2.37
5,GCACCCCCAAACATGGAAATA,3.7
6,GCACCCGGACCCAGAATACCA,0.884
7,GCACGACTTCTTCAAGTCCGC,0.976
8,GCAGAAAGCACAGAAAGGAAA,0.741
9,GCAGAACACCCCCATCGGCGA,1.13
10,GCAGAACAGAAAGTTCAACTG,1.27
11,GCAGAAGAACGGCATCAAGGC,0.647
12,GCAGAAGATGTAGATTGTGTG,1.66
13,GCAGAATTTAAATAAGGCTCT,3.11
14,GCAGAGAAAATTCAGACTATC,1.44
15,GCAGAGGATGAAAGATTAAGA,1.01
16,GCAGATACCTGGAACCACCTA,4.84
17,GCAGATGTAAACCAAACTTTT,1.76
18,GCAGCACGACTTCTTCAAGTC,1.18
19,GCAGCTCGCCGACCACTACCA,0.18
20,GCAGCTTATACATAGCAATGG,1.68
21,GCAGGAGAGTATTACTAGAGC,1.48
22,GCAGTGCTTCGCCCGCTACCC,0.911
23,GCATCAAGGCCAACTTCAAGA,26
24,GCATCATGATGGCCAATTCTG,0.114

row,Sequence,fold depletion of shRNA
1,GCATCGACTTCAAGGAGGACG,0.918
2,GCATCGAGCTGAAGGGCATCG,2.48
3,GCATCTAACATATGATTCTGT,3.14
4,GCATGCTAAGTACCCAAATAG,3.79
5,GCATGGACGAGCTGTACAAGT,0.676
6,GCATTTTACTGGCTCAAAACT,1.96
7,GCATTTTGAGCAGGAGAGTAT,2.42
8,GCCAAAATAGATGAGATCAAG,0.398
9,GCCAACATATTTGTAGATTTT,1.13
10,GCCAACTTCAAGATCCGCCAC,1.28
11,GCCAATCTTTGTACTCTTGCA,0.548
12,GCCAATTCTGCCATAAGCCCT,24.4
13,GCCACAACATCGAGGACGGCG,0.709
14,GCCACAACGTCTATATCACCG,1.55
15,GCCACAAGTTCAGCGTGTCCG,0.991
16,GCCACCTACGGCAAGCTGACC,0.732
17,GCCACTTTGCCTCTAAATTAC,2.79
18,GCCATAAGCCCTGTCCTCCAG,1.3
19,GCCATGCCCGAAGGCTACGTC,0.976
20,GCCCAAGTGACTGACATCAAC,1.52
21,GCCCACCCTCGTGACCACCCT,1.09
22,GCCCATCCTGGTCGAGCTGGA,0.916
